For the data set, the system named is bone marrow cells of Crl:CD(SD) rats. The data set is described as follows: Mammalian erythrocyte micronucleus test. The following applies: male or female rats, oral gavage.

As for `CN[C@]1(c2ccccc2Cl)CCCCC1=O` [esketamine, (2S)-2-(2-Chlorophenyl)-2-(methylamino) cyclohexanone], the “induction of micronucleated polychromatic erythrocytes or bone marrow cell toxicity (study conclusion)” value is recorded as “has not shown any evidence of causing an increase”.

The values are drawn from US12076300B2, “Dosage regime with esketamine for treating major depressive disorder” (priority 2019, dated 2024).
